Data: PubChem BioAssay AID190 (DTP/NCI, 2004)
Toxic doses and inconclusive results are not listed. Not every entry of the source has a single result; some have several. The other results are left out here. An entry can have further records. The records of an entry repeat one measurement in other runs, samples, wells, individuals or studies.

System: AKR/Lw mice, AKR lymphoma ip, median survival T/C
Assay: NCI In Vivo Anticancer Drug Screen. Data for tumor model Lymphoma AKR (Transplanted) (intraperitoneal) in AKR/Lw mice
Details: endpoint: median survival time, higher = longer survival
Method: The antitumor activity of compounds was measured in mice bearing transplantable tumors. Survival or tumor size were measured and the results are expressed as the measurement made in the treated group (T) divided by the measurement made in the vehicle treated control group (C). The tumor model used in this assay is Lymphoma AKR (Transplanted) (intraperitoneal) in AKR/Lw mice

[1] = dose: 150.0 mg/kg/injection, schedule: Q01DX009 (ip), vehicle: saline

For O=C[C@@H](CO)O[C@H](C=O)n1cnc2c(=O)[nH]cnc21, the T/C [1] was 106 % of control and 152 % of control.
CN(C)C(=O)c1cccc(COc2ccc(N3C(N)=NC(N)=NC3(C)C)cc2Cl)c1 was tested, and the T/C (dose: 6.2 mg/kg/injection, schedule: Q04DX003 (ip), vehicle: saline) was 100 % of control and 333 % of control and the T/C (dose: 15.0 mg/kg/injection, schedule: Q04DX003 (ip), vehicle: saline) was 102 % of control and 188 % of control.
With CC(=O)NNC(=O)c1ccccn1 the T/C (dose: 125.0 mg/kg/injection, schedule: Q01DX001 (ip), vehicle: Klucel (hydroxypropylcellulose) (HPC)) was 94 % of control and 150 % of control.
For O=NN(CCCl)C(=O)NCCCl, the T/C (dose: 2.0 mg/kg/injection, schedule: Q04DX004 (ip), vehicle: saline) was 115 % of control and 200 % of control.
Nc1ncn(C2OC(CO)C(O)C2O)c(=O)n1 (configuration not stated) was tested, and the T/C (dose: 6.0 mg/kg/injection, schedule: Q04DX003 (ip), vehicle: water) was 122 % of control and 150 % of control, the T/C (dose: 6.7 mg/kg/injection, schedule: Q04DX004 (ip), vehicle: saline) was 121 % of control and 161 % of control and the T/C (dose: 6.7 mg/kg/injection, schedule: Q04DX008 (ip), vehicle: saline) was 119 % of control and 175 % of control. The T/C (dose: 35.0 mg/kg/injection, schedule: Q01DX001 (ip), vehicle: saline) was 100 % of control and 184 % of control.
For Cc1c2ccncc2c(C)c2c1[nH]c1ccccc12, the T/C (dose: 25.0 mg/kg/injection, schedule: Q01DX005 (ip), vehicle: other) was 97 % of control and 175 % of control.
In the case of N[C@@H](Cc1ccc(N(CCCl)CCCl)cc1)C(=O)O, the T/C (dose: 6.0 mg/kg/injection, schedule: Q01DX001 (ip), vehicle: Klucel (hydroxypropylcellulose) (HPC)) is reported as 115 % of control and 160 % of control.
With O=P1(N(CCCl)CCCl)NCCCO1 (configuration not stated) the T/C (dose: 5.0 mg/kg/injection, schedule: Q01DX009 (ip), vehicle: saline) was 100 % of control and 160 % of control, the T/C (dose: 15.0 mg/kg/injection, schedule: Q01DX009 (ip), vehicle: saline) was 120 % of control and 156 % of control and the T/C (dose: 200.0 mg/kg/injection, schedule: Q07DX003 (ip), vehicle: saline) was 106 % of control and 153 % of control.
In the case of O=c1[nH]cc(F)c(=O)[nH]1, the T/C (dose: 60.0 mg/kg/injection, schedule: Q01DX001 (ip), vehicle: saline) is reported as 113 % of control and 172 % of control.
For O=P1(NCCCl)OCCCN1CCCl (configuration not stated), the T/C (dose: 40.0 mg/kg/injection, schedule: Q01DX009 (ip), vehicle: saline) was 102 % of control and 162 % of control and the T/C (dose: 50.0 mg/kg/injection, schedule: Q07DX003 (ip), vehicle: saline) was 113 % of control and 168 % of control.
For O=c1[nH]c(=O)n(C2CC(O)C(CO)O2)cc1F (configuration not stated), the T/C (dose: 12.5 mg/kg/injection, schedule: Q01DX009 (ip), vehicle: saline) was 110 % of control and 156 % of control.
In the case of N=c1ccn2c(n1)OC1C(O)C(CO)OC12 (configuration not stated), the T/C (dose: 75.0 mg/kg/injection, schedule: Q01DX009 (ip), vehicle: saline) is reported as 105 % of control and 152 % of control and the T/C [1] is reported as 111 % of control and 156 % of control.
In the case of CCCCCCCCCCCCCCCC(=O)OCC1OC(n2ccc(N)nc2=O)C(O)C1O (configuration not stated), the T/C (dose: 20.0 mg/kg/injection, schedule: Q01DX010 (ip), vehicle: saline with Tween-80) is reported as 90 % of control and 272 % of control and the T/C (dose: 100.0 mg/kg/injection, schedule: Q09DX002 (ip), vehicle: saline with Tween-80) is reported as 92 % of control and 153 % of control.
